Measured values from the supplement of paper PMC3334620.
Whole data set: some 33,000 sequences, median “E-score (-0.5 to 0.5)” near -0.053, cut for the highest 2% near 0.37. The list shows a part of the results.

molecular target: Hap1 (UniProt P0CE41); experiment: PBM E-score (8-mer binding enrichment) (E-score (-0.5 to 0.5)); higher = stronger / more preferred TF binding; most listed sequences are background and not binding sites; conditions: protein concentration: 200 nM; construct: GST-DNA-binding domain
Chain of UniProt P0CE41 (P0CE41 whole entry, the tested form may be a part): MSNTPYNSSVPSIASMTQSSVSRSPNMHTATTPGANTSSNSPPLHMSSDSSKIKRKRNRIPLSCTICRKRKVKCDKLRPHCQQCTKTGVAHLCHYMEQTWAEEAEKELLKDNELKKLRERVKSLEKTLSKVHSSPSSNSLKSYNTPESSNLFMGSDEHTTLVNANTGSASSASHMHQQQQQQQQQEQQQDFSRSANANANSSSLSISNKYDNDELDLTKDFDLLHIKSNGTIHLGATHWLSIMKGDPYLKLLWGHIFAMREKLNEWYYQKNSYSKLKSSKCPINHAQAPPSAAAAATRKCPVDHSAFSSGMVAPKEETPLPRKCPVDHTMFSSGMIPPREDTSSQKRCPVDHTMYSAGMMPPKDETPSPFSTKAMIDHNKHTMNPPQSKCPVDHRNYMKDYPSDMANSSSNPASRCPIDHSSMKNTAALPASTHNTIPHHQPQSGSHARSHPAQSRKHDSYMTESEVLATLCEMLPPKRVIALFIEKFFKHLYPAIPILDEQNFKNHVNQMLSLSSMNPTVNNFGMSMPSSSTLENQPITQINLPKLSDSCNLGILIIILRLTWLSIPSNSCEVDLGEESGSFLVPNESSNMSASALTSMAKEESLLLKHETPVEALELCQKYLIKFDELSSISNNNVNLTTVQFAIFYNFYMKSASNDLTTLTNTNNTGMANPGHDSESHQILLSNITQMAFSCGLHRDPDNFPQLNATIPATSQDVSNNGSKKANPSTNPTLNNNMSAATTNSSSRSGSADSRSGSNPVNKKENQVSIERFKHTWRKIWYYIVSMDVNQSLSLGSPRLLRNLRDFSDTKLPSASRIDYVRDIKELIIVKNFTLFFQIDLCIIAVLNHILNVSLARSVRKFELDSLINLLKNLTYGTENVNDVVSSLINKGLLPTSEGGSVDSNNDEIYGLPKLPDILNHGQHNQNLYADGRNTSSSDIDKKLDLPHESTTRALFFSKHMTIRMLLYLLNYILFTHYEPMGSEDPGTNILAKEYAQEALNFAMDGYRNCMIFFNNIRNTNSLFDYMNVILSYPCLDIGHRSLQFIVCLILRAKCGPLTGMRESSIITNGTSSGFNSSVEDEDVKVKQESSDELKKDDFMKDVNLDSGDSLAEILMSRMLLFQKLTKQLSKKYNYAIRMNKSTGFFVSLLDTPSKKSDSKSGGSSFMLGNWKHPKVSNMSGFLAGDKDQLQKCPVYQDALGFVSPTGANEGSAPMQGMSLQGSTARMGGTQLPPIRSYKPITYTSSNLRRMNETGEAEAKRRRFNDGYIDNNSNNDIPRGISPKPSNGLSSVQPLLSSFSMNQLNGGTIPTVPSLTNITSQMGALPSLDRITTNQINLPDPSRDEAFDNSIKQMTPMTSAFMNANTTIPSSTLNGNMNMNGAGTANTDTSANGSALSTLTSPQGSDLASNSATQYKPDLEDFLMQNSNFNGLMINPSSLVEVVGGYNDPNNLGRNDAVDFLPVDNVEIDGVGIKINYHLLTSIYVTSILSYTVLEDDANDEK
Method in brief: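 Full-length yeast transcription factors or their DNA-binding domains, GST-tagged and expressed with PURExpress, were applied at about 100-200 nM to universal all-10-mer Agilent arrays. These arrays had been made double-stranded by primer extension on fresh or once-stripped slides. Detection used fluorescent anti-GST, normalisation used masliner, and E-scores for ungapped eight-base words pooled with reverse complements came from the Universal PBM Analysis Suite.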

Sequence	PBM E-score
CCTGCCAG	-0.22
GTTCCGGA	0.383
AAAACGAC	-0.275
ATGCAGCG	0.039
AGAATAGG	-0.0338
TATTGTGA	-0.176
AGCTTCGC	-0.156
CGTCCTAG	-0.145
AAAGACTA	-0.0408
ATCTAATA	-0.113
CAGCTATC	0.0454
CCCCATCA	-0.0633
ACTAGACA	-0.0952
CGTAGATC	0.132
ATCCCCAT	0.132
ATGTATGC	0.0573
CCGTACGC	0.208
CAAGGGAG	-0.0781
AAGCCGGT	0.332
GCGGGAGC	-0.0693
AACACTAT	0.0204
AGTGTCAC	-0.07
AGAGTAAG	-0.121
CCGTGCAA	0.0301
GGATGACC	0.0942

Sequence	PBM E-score
AGCAGCAC	-0.294
TACAACTA	0.00211
ATGAAACA	-0.158
AGGGGTCG	-0.249
CTGCTGAA	-0.233
CTGTCGTC	-0.117
GACCAGCC	0.171
CAGCGTTC	-0.0658
AATGTATA	0.104
GCATGGAA	0.117
ACGTGACA	-0.248
ACTGGACA	-0.00994
GACCGAGC	0.375
ACTACTCT	-0.139
ACACCGAA	0.282
AGCGTCTA	-0.221
GTCCGTCA	0.246
AGAAACCT	-0.00042
CAGTCAGC	-0.156
CTTCAAAA	-0.22
AAAATGGA	0.0497
ACTCAATA	-0.0871
GAATCGAA	-0.142
CATGTACG	0.093
GCTTTATA	0.0999

Sequence	PBM E-score
GCAATAAC	0.16
GACCGACA	0.359
ATAGTATA	0.0133
AATAGGAC	-0.0969
AATCGTAC	0.0382
ATTGCACG	-0.0316
CTCCCTGC	-0.254
ACACCTCG	0.0907
GAGGACGA	-0.0666
TGATGAAA	-0.166
GCAGGAAA	-0.114
CCGGTAGC	0.341
CTCAGTTA	0.0135
CGAAGAAC	-0.0615
AGTCTCTA	-0.332
AATTAGTA	-0.0499
GTGCGAGA	-0.179
CGGTCGAG	0.204
CTCTCTCC	-0.0741
CCCTATGA	-0.236
CCATTGCG	0.00154
CTCATTAA	-0.0946
TCATTGGA	-0.0948
AAGGCACT	-0.193
TGAGACAA	-0.0521

Sequence	PBM E-score
ATGCGGTG	-0.162
CCTTGAAA	-0.242
GAACCATA	-0.0291
ATAAGCAA	-0.108
TGAGTACA	-0.0351
GAAAGCCC	0.188
GCTCATAC	-0.0326
ATGAAGAA	-0.136
AGTCTATG	-0.304
ATCAAGCA	-0.154
TATGACGA	-0.0552
CTGCGGTC	0.148
CCAGTATA	0.055
CCTTAAAA	-0.236
ATCCATAG	0.0507
GGCTGGTA	-0.0605
CCATCGGG	0.25
AGGTGCAG	-0.115
AGTTGTGC	-0.166
CCGATTCC	0.405
ATACTGGC	-0.224
AGAGCCCA	-0.13
GAATTCTC	0.0388
GATCCACC	-0.0286
AACGTGGT	-0.116

Sequence	PBM E-score
CAGTAGAG	-0.409
CTGGCAAG	-0.207
AGCTTATG	-0.244
ATTATCTC	0.231
CGGTTCGA	0.212
AGAGCCGG	0.263
TAAGGAAA	-0.0149
ATTGTTAC	-0.0281
GAGTCGGA	0.315
GGTGCAAC	0.198
AGGACGCG	-0.072
CACGACCG	0.104
AGCTCGCG	0.0191
ACGCCGAG	0.352
AAAAGACG	-0.167
ACAAGTTA	0.0246
ACGTCTGC	-0.197
GCCAGAGC	-0.2
AGCCCAAA	0.0481
GGCGCAAA	0.115
CCCGCCAA	0.107
CGGGCGGC	0.353
ACAGCAGT	-0.0935
ATGTTTCC	0.19
AAACTCAA	-0.125

Sequence	PBM E-score
CGAAGCGA	0.0956
CGTGGGTC	-0.0907
AGAGGGAC	-0.245
AAGTGACT	-0.244
CCTGGTGA	-0.171
CAATCTCC	0.264
AACCCGAC	0.32
ATTCGGGC	0.308
CTACTCAC	-0.179
ACTCCACA	-0.183
AACGGTTG	-0.155
AGACGGAA	0.164
ACGAATTA	-0.0927
TCCCTAAA	0.0112
GAGTATAA	0.0661
AAAGTGAA	-0.0435
GCGCGGAC	0.267
GTAATTTA	0.0329
CCCTGGTC	-0.177
CCCAATGC	-0.125
ACCTGAAT	-0.104
ACCAAAGG	-0.282
CGTTTTAA	-0.0609
CTAGATTC	-0.0392
CTAACTCA	-0.177

Sequence	PBM E-score
ATCGAACA	0.0509
CGGATGGC	0.179
ACATTTTA	-0.213
GCGTTCGA	-0.0723
ACAGGAAC	-0.241
CGGGCTTC	0.307
GGCGACGA	-0.133
TTCATAAA	-0.184
AAATGCGA	0.124
ACGTGGCA	-0.19
CCGCCTCG	0.114
ACCCACGG	0.0424
AGGTTGTA	-0.112
CAATTGTC	-0.108
ACACTACG	0.00345
GACTTATA	0.0475
GCATTGTA	-0.0934
ATCTCGGA	0.385
AGTGTCGA	-0.0327
GGAAGAAC	0.196
AATGTCGA	-0.22
CGACGACA	-0.214
